Out of some 410,000 compounds screened, about 530 (0.13%) were called active. This list was built around the results that the source calls inconclusive (neither active nor inactive); the mix of calls is not that of the screen. Calls follow the shape of the dose curve; as a rule, active = well fitted inhibition curve with a large enough effect; inconclusive = small, poorly fitted or top-dose-only effect, or another doubt; inactive = no such curve, though single readings can be large or run the other way. Where the call is inconclusive, the potency comes from a doubtful curve fit.
Assay: qHTS of GLP-1 Receptor Inverse Agonists: Cytotox Screen
Details: HEK293 cAMP-luciferase reporter cells, luminescence, 24 h; activity change, negative = inhibition: at 38.3 µM (top of the series) unless noted
Procedure, shortened: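 Luminescence readout: signal drop marks cytotoxicity. Plated cells grew 12 h at 37 °C, 5% CO2, received 23 nL compound for 24 h, then got luciferase reagent, read after 12 min at RT.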
% is scaled to controls: 0 for no effect and ±100 for the full control effect; potency is read from the fitted curve at half-maximal effect.

SMILES	Potency	activity change, negative = inhibition
O=C(O)c1ccc2c(c1Nc1ccccc1)C(=O)c1ccccc1C2=O	inconclusive: 8.91 µM [inhibitor, partial curve, poor fit]	–
COc1ccc(C(=O)NC(=S)NCc2ccccc2)cc1OC	inactive	–
COc1cc2c(cc1OC)/C(=C/C(=O)c1ccc(NC(C)=O)cc1)NCC2	–	inconclusive: -39.1% [inhibitor]
COc1cc(OC)cc(-c2noc(-c3csc([C@H]4C[C@H](O)[C@@H](CO)O4)n3)n2)c1	inactive	–
CC(NCc1ccccc1OC1CCCC1)c1ccccc1 (stereo not drawn)	inconclusive: 2.51 µM [inhibitor, partial curve, poor fit]	–
CCOc1ccccc1Oc1nc(C)nc2c1oc1ccccc12	inconclusive: 2.24 µM [inhibitor, full curve]	–
OCCNCc1cc(Br)ccc1OCc1ccc(Cl)cc1Cl	inconclusive: 28.2 µM [inhibitor, single point]	–
O=C(NCCCCCCCN1CCCCCCC1)C(C1CCCCC1)C1CCCCC1	inconclusive: 4.47 µM [inhibitor, partial curve, poor fit]	–
Cc1ccccc1CN(CC(=O)Nc1cccc([N+](=O)[O-])c1)S(=O)(=O)c1ccc(Cl)cc1	inconclusive: 28.2 µM [inhibitor, single point]	–
CC1C(=O)Nc2ccc(S(=O)(=O)N3CCN(c4cccc(C(F)(F)F)c4)CC3)cc2NC1=O (stereo not drawn)	inconclusive: 12.6 µM [inhibitor, single point]	–
CNC[C@H](CC1CCCCC1)NC[C@H](Cc1ccccc1)NCCC12CC3CC(CC(C3)C1)C2	inconclusive: 28.2 µM [inhibitor, single point]	–
CC(=O)N1CCN(c2ccccc2NC(=O)COc2ccc(Cl)cc2Cl)CC1	inconclusive: 28.2 µM [inhibitor, single point]	–
O=c1[nH]c(C2CCN(S(=O)(=O)c3ccccc3C(F)(F)F)CC2)nc2c1nnn2Cc1ccccc1	inconclusive: 28.2 µM [inhibitor, single point]	–
COc1ccc(NS(=O)(=O)c2cc(NC(=O)c3ccccc3)ccc2N2CCOCC2)cc1	inconclusive: 28.2 µM [inhibitor, single point]	–
Clc1ccccc1OCCN1CCC(Cc2ccccc2)CC1	inconclusive: 11.2 µM [inhibitor, single point]	–
CCN(CC)CCOc1cc2c(nn1)Oc1ccccc1N2C	inactive	–
COCC(=O)N(Cc1ccc(OC)cc1)Cc1nc2ccccc2c(=O)[nH]1	inactive	–
O=C(NCc1ccc(Cl)cc1)c1ccc2c(Cl)c3c(nc2c1)CCCC3	inactive	–
C=CCOc1ccc(CNn2cn[nH]c2=S)cc1OC	inactive	–
COc1ccccc1C1N(c2ccc(F)cc2)C(=O)C2CCCN21 (stereo not drawn)	inconclusive: 28.2 µM [inhibitor, single point]	–
CN(C)S(=O)(=O)c1cccc(NC(=S)N/N=C/c2cccc(O)c2)c1	inconclusive: 11.2 µM [inhibitor, single point]	–
Cn1c(N)c(C(=O)COC(=O)c2ccccc2C(=O)c2ccc(Cl)c([N+](=O)[O-])c2)c(=O)n(C)c1=O	inconclusive: 3.16 µM [inhibitor, partial curve, poor fit]	–
CCOc1ccc(N(Cc2cc3ccc(C)cc3[nH]c2=O)S(=O)(=O)c2ccccc2)cc1	inconclusive: 0.891 µM [inhibitor, full curve, poor fit]	–

SMILES	Potency	activity change, negative = inhibition
COc1ccc(NC(=O)C2COc3ccccc3C2)cc1Cl (stereo not drawn)	inactive	–
Cc1ccccc1NC(=S)NCc1ccccc1	inconclusive: 28.2 µM [inhibitor, single point]	–
COc1cc(/C=C/C(=O)OCC(=O)NCc2cccs2)ccc1OCC#N	inconclusive: 8.91 µM [inhibitor, partial curve, poor fit]	–
CC(C)Cc1ccc(S(=O)(=O)N2CCC(c3ccncc3)CC2)cc1	inactive	–
COc1ccc(-n2nc([N+](=O)[O-])c(=NC3CCN(Cc4ccccc4)CC3)n2O)cc1	inconclusive: 11.2 µM [inhibitor, partial curve, poor fit]	–
CC(=O)Nc1sc(C)c(C)c1C(=O)OCCOc1ccccc1	inconclusive: 28.2 µM [inhibitor, single point]	–
O=[N+]([O-])c1c(Nc2ccccc2O)cc(N2CCOCC2)c2nonc12	inconclusive: 25.1 µM [inhibitor, partial curve, poor fit]	–
Cc1noc(C)c1CSc1ncnc2sc3c(c12)CCCCC3	inactive	–
C=CCn1c(SCc2ccc(C(=O)Nc3nccs3)cc2)nnc1-c1ccc(C)c(Cl)c1	inconclusive: 7.94 µM [inhibitor, partial curve, poor fit]	–
CCCCCCCC/C=C\CCCCCCCC(=O)NCCc1ccc(O)c(O)c1	inconclusive: 11.2 µM [inhibitor, partial curve]	–
COc1ccc(CCNC(=O)C/C(C)=N/NC(=O)c2ccc([N+](=O)[O-])cc2Cl)cc1OC	inconclusive: 10 µM [inhibitor, partial curve]	–
Oc1ccc(F)c2cccnc12	inconclusive: 3.55 µM [inhibitor, single point]	–
O=C(NCCc1ccccc1)c1ccccc1Cl	inactive	–
Cc1cc(NCCCN2CCOCC2)n2nc(C)c(-c3ccccc3)c2n1	inactive	–
CC(C)C(=O)NCCc1nc2ccccc2n1CCCOc1ccc(Cl)cc1	inconclusive: 22.4 µM [inhibitor, single point]	–
COc1cc(/C=C2/C(=O)NN(c3cccc(F)c3)C2=O)ccc1OC(=O)c1ccco1	inconclusive: 7.08 µM [inhibitor, partial curve]	–
COc1cccc(-c2ccc(NC(=O)C3CCCN(Cc4cnn(C(C)C)c4)C3)cc2)c1 (stereo not drawn)	inconclusive: 28.2 µM [inhibitor, single point]	–
COc1ccc(N(C(=O)CCl)C(C(=O)NCCc2ccccc2)c2cccs2)cc1Cl (stereo not drawn)	inconclusive: 22.4 µM [inhibitor, single point]	–
O=C1OCCN1C(=O)[C@H]1[C@H](c2ccc([N+](=O)[O-])cc2)C(c2ccc(F)cc2)=NN1c1ccc(Br)cc1	inactive	–
CC1CCN(CC(=O)Nc2ccc(S(=O)(=O)N3CCCC(C)C3)cc2)CC1 (stereo not drawn)	inactive	–
CN(C)S(=O)(=O)c1cccc(-c2csc(=Nc3ccccc3)n2CCCN2CCOCC2)c1	inconclusive: 0.501 µM [inhibitor, partial curve, poor fit]	–
Cc1cc(OCC(=O)Nc2ccc(S(=O)(=O)N3CCN(C)CC3)cc2)ccc1Cl	inactive	–
CCOc1ccc(NC(=O)CSc2nc3ccsc3c(=O)n2C(C)CC)cc1 (stereo not drawn)	inactive	–

SMILES	Potency	activity change, negative = inhibition
Cc1cccc(C2=NN(c3ccccc3)[C@@H](C(=O)N3CCOC3=O)[C@@H]2c2ccc(F)cc2)c1	inactive	–
O=C1OC(c2ccccc2)(c2cc(Br)ccc2O)c2ccccc21 (stereo not drawn)	inconclusive: 12.6 µM [inhibitor, single point]	–
COc1ccc2[nH]c3c(N4CCN(Cc5ccc6c(c5)OCO6)CC4)ncnc3c2c1	inconclusive: 31.6 µM [inhibitor, single point]	–
CC[n+]1ccc(/C=C/c2ccc(N(C)C)cc2)c2ccccc21	inconclusive: 12.6 µM [inhibitor, partial curve, poor fit]	–
O=C(CSc1n[nH]c(-c2ccccn2)n1)Nc1ccc(F)cc1	inconclusive: 28.2 µM [inhibitor, single point]	–
CCN(CC)C(=O)CN1C(=O)C2(OCC(C)(C)CO2)c2ccccc21	inactive	–
COc1ccc(S(=O)(=O)n2nc(-n3c(C)ccc3C)c3c(F)cccc32)cc1OC	inactive	–
CCOC(=O)c1ccc2nc(NC(=O)C(C)C)sc2c1	inactive	–
OCCNc1nc(N2CCN(Cc3ccccc3)CC2)nc2ccccc12	inconclusive: 31.6 µM [inhibitor, single point]	–
CCCCNC(=S)NC(=O)c1ccc([N+](=O)[O-])cc1	inconclusive: 22.4 µM [inhibitor, partial curve, poor fit]	–
Cc1ccc(CC(=O)Nc2nc3ccccc3s2)cc1	inactive	–
COc1ccc(C2=NN(C(C)=O)CC2c2cccc([N+](=O)[O-])c2)cc1 (stereo not drawn)	inactive	–
C/C(=N/NC(=S)Nc1cccc(C)c1)c1cccc([N+](=O)[O-])c1	inconclusive: 1 µM [inhibitor, full curve, poor fit]	–
COc1ccc(NC(=O)CSc2nc3nc(C)c(Cc4ccc(C)cc4)c(C)n3n2)cc1OC	inactive	–
COc1cc2c(cc1O)C(SC)=NC(C)(C)C2	inconclusive: 10 µM [inhibitor, single point]	–
Cc1ccc(S(=O)(=O)C2(C(=O)NC3CCCCC3C)CC2)cc1 (stereo not drawn)	inconclusive: 28.2 µM [inhibitor, single point]	–
Cc1cc2ccccn2c1C(=O)c1nc(N2CCOCC2)ncc1Cl	inconclusive: 8.91 µM [inhibitor, partial curve, poor fit]	–
CN(C)c1ccc(N=C/C=C2\N(C)c3ccccc3C2(C)C)cc1	inconclusive: 12.6 µM [inhibitor, partial curve, poor fit]	–
S=C(Nc1ccc(Cl)c(Cl)c1)NC1CCCCC1	active: 12.6 µM	–
Cc1ccccc1NS(=O)(=O)c1ccc(OCC(=O)N2CCCCC2)cc1	inactive	–
CCC/C(C#Cc1ccsc1)=C1/c2ccccc2C(=O)N1c1ccccc1	inconclusive: 28.2 µM [inhibitor, single point]	–
Cc1ccsc1/C=N\NC(=O)c1n[nH]c2c1CCC2	inconclusive: 3.98 µM [inhibitor, full curve]	–
